The results in this text go back to ChEMBL document CHEMBL4888484, “Replenishing the malaria drug discovery pipeline: Screening and hit evaluation of the MMV Hit Generation Library 1 (HGL1) against asexual blood stage Plasmodium falciparum ,using a nano luciferase reporter read-out” (2022).

Each structure is given as a SMILES string. The campaign covered roughly 150,000 compounds. About 540 (0.36%) showed an effect of 50% or more. This is one part of the list.

The assay relates to Plasmodium falciparum. Put plainly: Primary screen in NF54 nanoGlo assay, in single point, at 2uM, 72h; a lower Z score goes with more inhibition. It is filed as functional, Erythrocyte. The following applies: timepoint 72 hour.
Usually % Inhibition stands for the relative decrease from the control value, in per cent. In the case of `COC1CCC(NC(=O)NCc2noc3c2CCCC3)CC1` (stereo not given), the “% Inhibition” value is reported as -14% and the Z score came out at 1.42.

`O=C1[C@@H](Nc2cc(F)cc(Br)c2)CCN1C1CC1`: the “% Inhibition” value was -8% and the Z score is reported as 0.85.

Take `CC(C)(O)C#Cc1cccc(C(=O)NCc2csc(N)n2)c1`: the “% Inhibition” value is given as -5% and the Z score is recorded as 0.79.

In the case of `O=C(NC[C@]1(O)CCc2ccccc21)Nc1ccc(F)cn1`, the “% Inhibition” value is -5% and the Z score worked out at 0.51.

For `Cc1ccccc1CCC(=O)N1C[C@H](C)[C@@](O)(C2CC2)C1`, the “% Inhibition” value is -9% and the Z score is 1.69.

As for `C1CC(=C2CCC(NC3CCOC(C4CC4)C3)CC2)C1` (stereo not given), the “% Inhibition” value is recorded as -11% and the Z score is listed as 1.44.

In the case of `O=C(c1cnc2c(c1)CCCC2)N1CCC(Oc2cccc(Cl)c2)CC1`, the “% Inhibition” value was -14% and the Z score was 2.76.

In the case of `O=C(NCC1(N2CCCCC2)CCOCC1)c1cc(F)cc(Cl)c1O`, the “% Inhibition” value was found to be 2% and the Z score was -0.19.

For the compound `CC(C)CS(=O)(=O)N1CCC(F)(F)CC1`, the “% Inhibition” value is recorded as -14% and the Z score came to 1.77.

For `CC(Cn1cncn1)NC(=O)N1CCCC1c1ccncc1` (stereo not given), the “% Inhibition” value is listed as -15% and the Z score worked out at 1.41.

For the compound `COc1ccc(CCc2nc(-c3cn(-c4ccccc4)nn3)no2)cc1`, the “% Inhibition” value was -22% and the Z score was determined as 4.36.

On to `COc1ccccc1N(CCC(N)=O)C(=O)CN[C@H](c1ccncc1)C(C)C`, for which the “% Inhibition” value is 12% and the Z score is on record as -1.37.

Consider `CC[C@H]1C=CCN1C(=O)c1cccc(S(=O)(=O)N[C@H]2CC[C@H](O)CC2)c1`, for which the “% Inhibition” value was -8% and the Z score stood at 0.78.

Turning to `CCCNC(=O)N[C@@H]1C[C@H](COc2ccc(S(C)(=O)=O)cc2)[C@@H](O)[C@H]1O`, the “% Inhibition” value is listed as -1% and the Z score is 0.14.

Consider `C[C@H]1CCN(Cc2cccc3[nH]ccc23)CCS1(=O)=O`, for which the “% Inhibition” value was -2% and the Z score was determined as 0.42.

Regarding `COc1ccccc1S(=O)(=O)N1C2CCC1CC(n1ccnc1)C2` (stereo not given), the “% Inhibition” value was -16% and the Z score worked out at 2.04.

Take `O=C(NCCCn1ccnc1)c1ccc(-n2cccn2)nn1`: the “% Inhibition” value is -2% and the Z score is listed as 0.26.

As for `COc1ccc(NC(=O)C2Cc3ccccc3N3CCN(CCOc4ccccc4)CC23)cc1OC` (stereo not given), the “% Inhibition” value was -4% and the Z score was determined as 0.65.

On to `Cc1cnc(N2CC[C@H](O)C2)nc1N1CC[C@H](O)C1`, for which the “% Inhibition” value was -7% and the Z score was determined as 1.17.

Regarding `O=C1CC[C@H](C(=O)N2CCOC3CCCCC32)N1` (stereo not given in full), the “% Inhibition” value turned out to be 2% and the Z score is on record as -0.45.

With `O=C(O)[C@@H]1CCCN1Cc1ccc(C2CCCC2)s1`, the “% Inhibition” value is -10% and the Z score stood at 1.24.

As to `CC(C)CCS(=O)(=O)N(C)CCCN1CCN(C)CC1`, the “% Inhibition” value amounted to 11% and the Z score is -1.41.

Turning to `C[C@@H](C(=O)Nc1ccc(S(=O)(=O)N2CCCC2)cc1)N1CCN(c2ccccc2O)CC1`, the “% Inhibition” value is recorded as -7% and the Z score worked out at 1.19.

With `O=C(COc1ccc(F)cc1)N1CCCC[C@@H]1CCN1CCCCC1`, the “% Inhibition” value is on record as -5% and the Z score is 0.73.

Consider `O=C(O)[C@H]1CC[C@@H](C(=O)N2CCc3c(Cl)cccc3C2)C1`, for which the “% Inhibition” value is given as 1% and the Z score is given as -0.23.

Turning to `CC1(C)[C@H](C(=O)NC2CCCCC2)CC[C@]1(C)C(=O)O`, the “% Inhibition” value was -2% and the Z score is given as 0.26.

In the case of `O=S(=O)(NCC(F)F)c1ccc(OCC(F)(F)F)nc1`, the “% Inhibition” value was -8% and the Z score is recorded as 0.92.

For `Nc1nccc(N2CC[C@H]3[C@H](CCC(=O)N3CCC3=CCCCC3)C2)n1`, the “% Inhibition” value is given as -3% and the Z score is 0.54.

Consider `CCOc1ccc(OCc2n[nH]c(CCc3ccncc3)n2)cc1`, for which the “% Inhibition” value was 9% and the Z score is -1.2.

Take `CC(N[C@@H](C)CO)c1ccc(Br)cc1F` (stereo not given in full): the “% Inhibition” value is recorded as -4% and the Z score amounted to 0.54.

Turning to `O=C1CCC2(CCN(S(=O)(=O)c3ccc(F)cc3F)CC2)N1`, the “% Inhibition” value came to 36% and the Z score is given as -0.7.

For the compound `O=C(N[C@@H]1c2ccccc2C[C@H]1O)N1CCN(C(=O)c2ccc[nH]2)CC1`, the “% Inhibition” value is given as 0% and the Z score is listed as -0.07.

Consider `CC[C@H](C)NC(=O)c1noc(C)c1Cn1nc(C)cc1C`, for which the “% Inhibition” value was -19% and the Z score amounted to 1.9.

`CN(CC1CCCC1)C(=O)NCCOCCS(N)(=O)=O`: the “% Inhibition” value is recorded as 4% and the Z score is -0.4.

Take `CC(=O)N(C)Cc1cn(-c2cc(C)cc(C)c2)nn1`: the “% Inhibition” value came out at 3% and the Z score is on record as -0.46.

`CCCn1nnc2cc(S(=O)(=O)N3CCC[C@H](C(=O)NCc4cccc(C)c4)C3)ccc21`: the “% Inhibition” value is -25% and the Z score is recorded as 2.24.

Regarding `CCNc1nccnc1N1CCC[C@H](CC(N)=O)CC1`, the “% Inhibition” value is given as -8% and the Z score is recorded as 1.45.

Regarding `C[C@H]1CCCN(c2cc(C(=O)Nc3cccc(N4C(=O)CNC4=O)c3)ccn2)C1`, the “% Inhibition” value is recorded as -3% and the Z score was 0.4.

As for `CC(C)n1cc(-c2nc(CCN3CCCC3=O)no2)cn1`, the “% Inhibition” value is given as -10% and the Z score is reported as 1.39.

`O=S(=O)(c1ccc(-c2nnc(C3CCC3)o2)o1)N1CCCC1`: the “% Inhibition” value is reported as -2% and the Z score worked out at 0.29.

For `N#Cc1ncn(CC(=O)NCc2ccc3c(c2)OCO3)n1`, the “% Inhibition” value is reported as 2% and the Z score is -0.23.

Consider `Cc1nc(N2CCOCC2)cc(N2CCN(C(=O)c3ccc(Cl)cc3)CC2)n1`, for which the “% Inhibition” value is reported as 0% and the Z score is listed as -0.04.

As for `Fc1ccc(CC[C@H]2CCCNC2)cc1F`, the “% Inhibition” value was -9% and the Z score was 1.01.

As for `CC(C)=CCN1CC2(CCN(C(=O)c3ccc(CO)o3)CC2)CC1=O`, the “% Inhibition” value is listed as -1% and the Z score turned out to be 0.21.

Take `C=CCN1C(=O)COc2ccc(NC(=O)c3snnc3C)cc21`: the “% Inhibition” value is on record as -2% and the Z score is recorded as 0.16.

Turning to `COc1ccc(C(=O)NCCc2ncc(C)n2CC2CC2)cn1`, the “% Inhibition” value was -3% and the Z score worked out at 0.28.

Regarding `COc1ccc(C(=O)NCC2CCCC2NS(C)(=O)=O)nn1` (stereo not given), the “% Inhibition” value is 1% and the Z score is on record as -0.09.

For the compound `COCCn1c(=O)c2sccc2n(CC(=O)N2CCN(c3ccc(OC)cc3)CC2)c1=O`, the “% Inhibition” value was determined as 7% and the Z score is -0.84.

For the compound `Cc1ccc2c(c1)C(=O)N(CCCC(=O)N1CCC(c3c[nH]c4ccccc34)CC1)C2=O`, the “% Inhibition” value was -1% and the Z score amounted to 0.28.

With `CCC(=O)N1CC23C=CC(CC2CC12CCCCC2)O3` (stereo not given), the “% Inhibition” value is -5% and the Z score worked out at 0.75.

Regarding `Cn1cc(-c2ccccc2)c(NC(=O)NCCC(=O)N2CCCCCC2)n1`, the “% Inhibition” value amounted to 7% and the Z score is recorded as -1.08.

As for `Cc1csc(NC2CCN(C(=O)c3cscc3C(F)(F)F)CC2)n1`, the “% Inhibition” value is on record as -7% and the Z score came to 0.98.

Regarding `CN(C)S(=O)(=O)N1CCC(CNC(=O)Cc2c(F)cccc2Cl)CC1`, the “% Inhibition” value came to 3% and the Z score is reported as -0.37.

For the compound `N=C(N)Nc1nc(CCN2C(=O)c3ccccc3C2=O)cs1`, the “% Inhibition” value is recorded as -14% and the Z score turned out to be 2.64.

As for `COc1ccc(CCC(=O)N2C(C(=O)O)CC3CCCCC32)c(OC)c1OC` (stereo not given), the “% Inhibition” value is -8% and the Z score came to 0.9.
